Data as given in PubChem BioAssay AID2100 (National Center for Advancing Translational Sciences (NCATS), 2009).
Out of some 300,000 compounds screened, about 1,200 (0.4%) were called active. The shares of active, inactive and inconclusive entries below differ from those in the screen. Calls come from the whole dose curve; as a rule, active = well fitted inhibition curve with a large enough effect; inconclusive = small, poorly fitted or top-dose-only effect, or another doubt; inactive = no such curve, though single readings can be large or run the other way. Potencies beside an inconclusive call are fits to weak or partial responses and may not hold up.

biological target: Lysosomal alpha-glucosidase (Homo sapiens) (UniProt P10253); assay: qHTS Assay for Inhibitors and Activators of Human alpha-Glucosidase Cleavage of Glycogen; conditions: recombinant GAA, glycogen substrate, Amplex Red glucose oxidase fluorescence; activity change, negative = inhibition: at 76.4 µM (top of the series) unless noted;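 for activity change, negative = inhibition: 0% = full enzyme reaction and -100% = no-enzyme basal signal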
Outline: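 Recombinant human enzyme (4 nM); glycogen substrate; 37 C, 40 min, pH 5.0. Readout: coupled glucose oxidase/Amplex Red fluorescence.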
Potency is the fitted concentration of half-maximal effect.

Compound | Potency | activity change, negative = inhibition
Nc1c(NC2CCCCC2)c2ccccc2oc1=O | inconclusive: 12.5 µM [inhibitor, partial curve] | –
NC(=O)SCC(=O)Nc1cccc(Cl)c1 | – | inactive: 1.83%
CCOc1ccc(N/C(C)=C\C(=O)c2ccc3c(c2)OCCO3)cc1 | inconclusive: 39.5 µM [inhibitor, single point] | –
COc1ccc(Br)cc1CNc1ccc2[nH]c(=O)[nH]c2c1 | inconclusive: 44.7 µM [inhibitor, single point] | –
O=C(NNc1cc(Cl)ccc1Cl)c1c(F)cccc1Cl | inconclusive: 22.4 µM [inhibitor, partial curve] | –
C/C(=N\Nc1ccc(Cl)c(C(=O)O)c1)c1ccccn1 | inconclusive: 24.9 µM [inhibitor, partial curve] | –
CCOC1=C/C(=C/c2c(N)n3nc(CC(=O)N4CCCCC4)sc3nc2=O)C=CC1=O | inconclusive: 50.1 µM [inhibitor, single point] | –
Cc1ccn2c(Nc3ccc4c(c3)OCO4)c(-c3ccco3)nc2c1 | active: 5.01 µM | –
COc1cc(/C=N/Nc2nc3ccccc3[nH]c2=O)ccc1O | inconclusive: 11.2 µM [inhibitor, partial curve] | –
Brc1ccc2nc(-c3ccncc3)c(NC3CCCC3)n2c1 | active: 9.92 µM | –
C/C(CC(=O)Nc1ccccn1)=N\NC(=O)c1cnccn1 | inconclusive: 14.1 µM [inhibitor, partial curve] | –
O=C(C1CCCO1)N1CCN(C(=S)Nc2ccc(Cl)cc2)CC1 (stereo not given) | – | inactive: 14.4%
CN(O)C(=O)Nc1ccc([N+](=O)[O-])cc1 | inconclusive: 10 µM [inhibitor, full curve] | –
Cc1c2cnn(-c3ccccc3)c(=O)c2c(C)n1CC(=O)NCc1ccc(Cl)cc1 | inconclusive: 10 µM [inhibitor, partial curve] | –
CCOc1cc(/C=N/NC(=O)c2cccnc2)ccc1O | inconclusive: 10 µM [inhibitor, single point] | –
COC(=O)c1cc(NS(=O)(=O)c2cccc(Cl)c2)ccc1N1CCOCC1 | – | inactive: 1.82%
CCn1cc(C(=O)NN)c(=O)c2cc(F)c(N3CCCCC3)cc21 | inconclusive: 14.1 µM [inhibitor, partial curve, poor fit] | –
COc1ccc(CCNC(=O)CCCn2c(=O)c3ccccc3n(CC(=O)Nc3c(C)cc(C)cc3C)c2=O)cc1OC | – | inactive: 9.36% [at 76.3 µM]
N#C/C(=C\c1ccc(O)c(O)c1)C(=O)N1CCCC1 | active: 2.82 µM | –
CCCCn1c(-c2csc3c2CCCC3)n[nH]c1=S | inconclusive: 28.2 µM [inhibitor, partial curve] | –
